The campaign covered roughly 230,000 compounds. About 3,600 (1.6%) were called active. Inconclusive results, whose numbers are uncertain, are shown with a selection of clear calls. The call rests on the fitted dose curve; in most records, active means well fitted inhibition curve with a large enough effect (not every such curve was filed as active); inconclusive means small, poorly fitted or top-dose-only effect, or another doubt; inactive means no such curve, though single readings can be large or run the other way. A potency beside an inconclusive call is a rough fit, not a confirmed value.
target: Lysine-specific demethylase 4E (Homo sapiens) (UniProt B2RXH2); test: qHTS Assay for Inhibitors of Human Jumonji Domain Containing 2E (JMJD2E); conditions: JMJD2E catalytic domain, FDH-coupled NADH fluorescence (FDH is formaldehyde dehydrogenase); series mostly up to 57.1 µM
Further: nearly all actives have a fitted effect of over 50% in size.
Potency means the concentration at half of the fitted maximal effect; tags describe the fitted curve by direction and shape.

Chain of UniProt B2RXH2 (B2RXH2 whole entry, looked up, the tested form may be a part): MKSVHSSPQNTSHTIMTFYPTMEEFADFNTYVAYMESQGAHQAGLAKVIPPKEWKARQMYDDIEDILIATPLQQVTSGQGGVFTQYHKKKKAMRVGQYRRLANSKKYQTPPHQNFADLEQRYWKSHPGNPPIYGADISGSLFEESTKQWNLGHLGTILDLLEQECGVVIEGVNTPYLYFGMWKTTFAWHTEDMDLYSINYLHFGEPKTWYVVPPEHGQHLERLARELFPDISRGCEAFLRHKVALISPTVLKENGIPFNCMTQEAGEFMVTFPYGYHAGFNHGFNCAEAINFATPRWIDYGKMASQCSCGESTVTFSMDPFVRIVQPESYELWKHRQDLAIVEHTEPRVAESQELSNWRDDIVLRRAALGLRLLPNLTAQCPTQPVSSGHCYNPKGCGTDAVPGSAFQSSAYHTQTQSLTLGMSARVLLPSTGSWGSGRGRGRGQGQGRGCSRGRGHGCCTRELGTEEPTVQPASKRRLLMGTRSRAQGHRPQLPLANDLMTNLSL

| SMILES | Potency |
| --- | --- |
| NC(=O)c1cc(NC(=O)c2cc(Br)c(Br)s2)cc(C(N)=O)c1 | inconclusive: 35.5 µM [inhibitor, partial curve] |
| O=C(COC(=O)c1ccc(Cl)nc1)Nc1ccc(S(=O)(=O)N2CCCC2)cc1 | inactive |
| Cc1cc(C)c(C)c(S(=O)(=O)Nc2ccccc2C(=O)O)c1C | inconclusive: 35.5 µM [inhibitor, single point] |
| O=C(Cn1nnc(-c2ccccc2-n2cnnn2)n1)N1CCCCC1 | inactive |
| CCOC(=O)c1c(NC(=O)Cn2nc(C(F)(F)F)cc2C)sc(C)c1C | inactive |
| O=C1NCC2=C1C(c1ccc(Br)cc1)Nc1ccccc1N2 (stereo not given) | inactive |
| Clc1ccc(OCc2nnc(SCCN3CCCCC3)n2Cc2ccco2)cc1 | inactive |
| C#CCN(C)CC/C=C1\c2ccccc2CSc2ccccc21 | inactive |
| CCOC(=O)N1CCC(N2CCCC(C(=O)c3cccc(OC(C)C)c3)C2)CC1 (stereo not given) | inconclusive: 25.1 µM [inhibitor, single point] |
| O=S(=O)(c1cccs1)N1CCN(c2ccnc3cc(Cl)ccc23)CC1 | inconclusive: 35.5 µM [inhibitor, single point] |
| C=C(C)COc1ccc2c(C)c(C)c(=O)oc2c1OCC(=C)C | inconclusive: 28.2 µM [inhibitor, partial curve] |
| Cc1ccc(NP(=O)(c2ccc(N(C)C)cc2NC(=O)c2cccs2)N2CCOCC2)cc1Cl (stereo not given) | inconclusive: 31.6 µM [inhibitor, single point] |
| COc1cccc(/C=N/n2c(N)c(S(=O)(=O)c3cccs3)c3nc4ccccc4nc32)c1OC | inconclusive: 2.51 µM [inhibitor, partial curve] |
| Cc1ccc(C(=O)Nc2nnc(CC(=O)N/N=C/c3ccncc3)s2)cc1 | inactive |
| CC(/C=N/NC(=O)c1ccncc1)=C\c1ccc(C(C)C)cc1 | inconclusive: 25.1 µM [inhibitor, partial curve] |
| Cc1c(C(=O)N(C)C)sc2nc(-c3ccccn3)[nH]c(=O)c12 | inconclusive: 25.1 µM [inhibitor, partial curve] |
| O=C(C[n+]1cc(-c2ccc(F)cc2)n2c1CCC2)Nc1nc(-c2ccccc2)cs1 | inactive |
| O=c1cc(C(F)(F)F)[nH]c2c(OC(F)(F)F)cccc12 | inconclusive: 22.4 µM [inhibitor, partial curve] |
| COc1ccc(-c2nnc(Nc3ccc(S(=O)(=O)Nc4nccs4)cc3)c3ccccc23)cc1 | inconclusive: 39.8 µM [inhibitor, single point] |
| Cc1nc2ccccn2c1P(=Nc1ccccc1)(N(C)C)N(C)C | inconclusive: 35.5 µM [inhibitor, single point] |
| O=C(Cc1nc2ccccc2[nH]1)c1ccc([N+](=O)[O-])cc1 | inconclusive: 39.8 µM [inhibitor, single point] |
| O=C(CSc1nnc(-c2ccncc2)o1)Nc1ccccc1Cl | inactive |
| Cc1ccc2nc(SCC(=O)Nc3ccc(F)cc3F)[nH]c2c1 | inactive |
| COC(=O)C1=CNC=C(C(=O)OC)C1c1ccccc1Cl | inconclusive: 31.6 µM [inhibitor, partial curve] |

| SMILES | Potency |
| --- | --- |
| COc1cc(/C=N\NC(=O)C2COc3ccccc3O2)cc(OC)c1O (stereo not given) | inconclusive: 35.5 µM [inhibitor, partial curve] |
| CCN(CC)CCCN(Cc1cc2cc3c(cc2[nH]c1=O)OCO3)C(=S)Nc1ccc(OC)cc1 | inconclusive: 31.6 µM [inhibitor, partial curve] |
| Cc1cccc(NC(=S)NCCN2CCOCC2)c1C | inconclusive: 39.8 µM [inhibitor, single point] |
| CC(=O)C1=C(O)C(=O)N(Cc2ccco2)C1c1ccc(F)cc1 (stereo not given) | inconclusive: 35.5 µM [inhibitor, single point] |
| O=c1c(Cl)c(Cl)cnn1-c1ccccc1 | inactive |
| COc1ccc(C)cc1NC(=O)C(Sc1nnc(-c2cccs2)o1)c1ccccc1 (stereo not given) | inactive |
| CCCc1c(O)c2ccccc2[nH]c1=O | inconclusive: 31.6 µM [inhibitor, partial curve] |
| Cc1[nH]nc(N=CC2=C(O)CC(C)(C)CC2=O)c1-c1ccc(Cl)cc1 | inactive |
| Cc1ccn(C(=O)c2cc3c(C)nn(-c4ccccc4)c3s2)n1 | inconclusive: 3.16 µM [inhibitor, partial curve] |
| Cc1ccc2nc(N(CCCN(C)C)C(=O)c3ccc4c(c3)CCCC4)sc2c1 | inactive |
| COc1ccc(C(CCN2CCCC2)c2c(O)cc(OC)cc2OC)cc1 (stereo not given) | inconclusive: 39.8 µM [inhibitor, single point] |
| Cc1cccc(NC(=S)NNC(=O)c2ccccc2Br)c1 | inactive |
| Cc1nc(SCC(=O)Nc2ccccc2)c2oc3ccccc3c2n1 | inconclusive: 35.5 µM [inhibitor, single point] |
| Cc1noc(C)c1-c1ccc2ncnc(N(C)Cc3ccco3)c2c1 | inactive |
| COC(=O)c1cc(S(=O)(=O)C(C)C)c(S(C)=O)s1 (stereo not given) | inconclusive: 39.8 µM [inhibitor, single point] |
| COc1ccc(NC(=O)Cc2c(O)c3ccccc3[nH]c2=O)cc1 | inconclusive: 28.2 µM [inhibitor, single point] |
| COc1ccccc1C(=O)Nc1nc(-c2cccs2)c(NC(C)=O)s1 | inconclusive: 35.5 µM [inhibitor, single point] |
| CCN(C(=O)c1cc2c(C)nc3ccccc3c2o1)c1cc(Cl)ccc1OC | inactive |
| COc1ccc(-n2c(N)c(C(=O)Nc3c(C)n(C)n(-c4ccccc4)c3=O)c3nc4ccccc4nc32)cc1 | inconclusive: 39.8 µM [inhibitor, single point] |
| O=C(NCc1ccco1)/C(=C/c1ccco1)NC(=O)c1ccc(Br)o1 | inactive |
| CC(=O)c1ccc(N2CCN(C(=O)C3(S(=O)(=O)c4ccc(Cl)cc4)CC3)CC2)cc1 | inconclusive: 0.891 µM [inhibitor, single point] |
| CC(CCCC(C)(C)O)CC1C2=C(CCCC2=O)OC2=C1C(=O)CCC2 (stereo not given) | inconclusive: 39.8 µM [inhibitor, single point] |
| COC(=O)c1cccc(S(=O)(=O)N(Cc2ccco2)Cc2cc3cc(OC)c(OC)cc3[nH]c2=O)c1 | inconclusive: 25.1 µM [inhibitor, partial curve] |
| CC(=C/c1ccccc1)/C=N/n1c(-c2ccncc2)n[nH]c1=S | inconclusive: 11.2 µM [inhibitor, partial curve] |

| SMILES | Potency |
| --- | --- |
| CCN(CC)c1ccc(/C=N/NC(=O)Cc2nnc(NC(=O)Nc3ccccc3)s2)cc1 | inconclusive: 20 µM [inhibitor, partial curve] |
| COc1ccc(Br)cc1CNc1ccc(O)cc1 | inconclusive: 1.78 µM [inhibitor, full curve] |
| O=C1c2cccc3cccc(c23)C(=O)N1CCN1CCN(CC(O)COCc2ccc(Cl)cc2)CC1 (stereo not given) | inconclusive: 39.8 µM [inhibitor, single point] |
| COc1cccc(-c2nc(-c3ccc4c(c3)NC(=O)CO4)cs2)c1 | inactive |
| COc1cccc(-c2[nH]nc3c2C(c2ccoc2)C(C#N)=C(N)O3)c1 (stereo not given) | inactive |
| O=C(O)c1cc(-c2ccc(/C=N/NC(=S)Nc3ccccc3)o2)ccc1Cl | inconclusive: 31.6 µM [inhibitor, partial curve] |
| CC(C)(C)S(=O)(=O)c1cnc2c(S(=O)(=O)c3ccccc3)cnn2c1N | inconclusive: 39.8 µM [inhibitor, single point] |
| CCOC(=O)C1=NOC(C(=O)NN(C)c2ncc(C(F)(F)F)cc2Cl)C1 (stereo not given) | inactive |
| Clc1ccc(-c2nnc3n2CCCC3)cc1 | inactive |
| N#Cc1c(-c2ccccc2)[nH]c(=S)[nH]c1=O | inactive |
| Cc1cccc(CNc2cc(-c3ccccc3CN(C)C)ncn2)c1 | inconclusive: 28.2 µM [inhibitor, single point] |
| COCc1cc(C)n(CC(=O)NC(C)c2ccccc2)c(=O)c1C#N (stereo not given) | inconclusive: 22.4 µM [inhibitor, partial curve] |
| Cc1cc(=O)oc2ccc(OCC(=O)N3CCC(C)CC3)cc12 | inconclusive: 20 µM [inhibitor, partial curve] |
| Cc1cc(C(=O)COC(=O)C2=COCCO2)c(C)n1-c1ccc2c(c1)OCO2 | inconclusive: 25.1 µM [inhibitor, single point] |
| c1ccc2c(c1)NC1(CCCC1)n1c-2nc2ccccc21 | inconclusive: 25.1 µM [inhibitor, partial curve] |
| C=C1C(=O)[C@@]23[C@H](O)C[C@@H]4C(C)(C)CC[C@H](O)[C@@]4(C)[C@@H]2CC[C@@H]1[C@H]3O | inactive |
| COc1cc(O)c(C(=O)/C=C/c2ccc(O)c(OC)c2)c(OC)c1 | inconclusive: 35.5 µM [inhibitor, single point] |
| COc1cc(/C=N/NC(=O)C2CCN(CC(O)COCc3ccccc3)CC2)ccc1O (stereo not given) | inconclusive: 39.8 µM [inhibitor, single point] |
| COc1ccc(Cc2nc3ccccc3n2CC(=O)N/N=C/c2ccccc2)cc1OC | inconclusive: 35.5 µM [inhibitor, single point] |
| COc1ccc(-c2cc(C(=O)OCC(=O)c3cccc([N+](=O)[O-])c3)c3cc(C)ccc3n2)cc1 | inconclusive: 14.1 µM [inhibitor, partial curve] |
| COc1ccc2nc(N3CCC(C)CC3)c(C#N)cc2c1 | inconclusive: 35.5 µM [inhibitor, partial curve] |
| COc1ccc2[nH]c(=O)c(CN(CCc3ccccc3)C(C)=O)cc2c1 | inconclusive: 28.2 µM [inhibitor, partial curve] |
